Screen size: about 48,000 compounds; about 120 (0.25%) were called active. Not shown: some 4% with an inconclusive outcome. The call rests on the fitted dose curve; in most records, active means well fitted activation curve with a large enough effect; inconclusive means small, poorly fitted or top-dose-only effect, or another doubt; inactive means no such curve, though single readings can be large or run the other way. The list shows a part of the results.
test: Primary qHTS for Identification of Small Molecule Activators of Huntingtin-Antisense Promoter Activity; settings: HEK293 HTT-AS promoter firefly luciferase reporter, 24 h; series mostly up to 57.5 µM; activity change, positive = activation: at the top concentration; further: nearly all actives have a fitted effect of over 55% in size
Procedure, shortened: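 Quantitative HTS used concentration series of up to 57.5 uM final on HEK293 luciferase reporter cells, 24 h at 37 degrees C. Readout was Dual-Glo firefly luminescence.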
Potency means the concentration at half of the fitted maximal effect.

SMILES	activity change, positive = activation	Potency
O=C(Nc1ccc(C(=O)OCc2cc(=O)n3c4c(sc3n2)CCCC4)cc1)c1ccc(F)cc1	inactive: -4.64%	
O=C(CCCCn1c(=O)c2ccccc2n(CC(=O)Nc2cccc(C(F)(F)F)c2)c1=O)NCc1ccc2c(c1)OCO2	inactive: -36.5%	
CCN(CC)S(=O)(=O)c1ccc(C(=O)N2CC(=O)Nc3ccc(F)cc3C2c2ccccc2)cc1 (stereo not drawn)	inactive: 3.11%	
C#C[C@]1(OC(C)=O)CC[C@H]2[C@@H]3CCC4=C[C@@H](OC(C)=O)CC[C@@H]4[C@H]3CC[C@@]21C	inactive: -22.4%	
CC(C)(C)OC(=O)N1CCC(c2c(C(=O)NCCc3ccccc3)cnn2-c2ccc(F)cc2)CC1	inactive: -0.432%	
O=C(C1CCN(S(=O)(=O)c2ccc(Br)s2)CC1)N1CCN(c2ccccc2)CC1	inactive: -30.9%	
COc1ccc(CCN2C(=O)NC(NS(=O)(=O)c3ccc(NC(C)=O)cc3)(C(F)(F)F)C2=O)cc1OC (stereo not drawn)	inactive: -5.36%	
CC(=O)Nc1ccc2nc(SCCOc3cc(C)cc(C)c3)sc2c1	inactive: -37.6%	
CC(=O)N1c2ccc(S(=O)(=O)NCC3CCC(C(=O)Nc4cc(C)ccc4C)CC3)cc2CC1C (stereo not drawn)	inactive: -38.5%	
COc1cc(NC(=O)c2c(C)oc3c2C2=NCCN2C=N3)cc(OC)c1OC	inactive: 4.26%	
CCc1ccc(-c2nn(CC(=O)NCc3ccccc3)c3c2cnc2ccc(F)cc23)cc1	inactive: 25.9%	
COc1ccc(OCC(=O)NCc2ccc3c(c2)CCN3C(=O)c2ccc(F)cc2)cc1	inactive: -17.7%	
COC(=O)c1c(Cl)c(Cl)c(C(=O)OC)c(Cl)c1Cl	inactive: -9.75% [at 116 µM, percent change from vehicle, -100% = no light]	
COC(=O)c1ccc(OCC2c3cc(OC)c(OC)cc3CCN2C(=O)Cc2ccccc2)cc1 (stereo not drawn)	inactive: -24.9%	
Cn1cnnc1SCC(=O)Nc1ccc(C#N)cc1	inactive: -15.6%	
CN(CC(=O)NCc1ccccc1)S(=O)(=O)c1ccc2[nH]c3c(c2c1)CCCC3	inactive: -26.9%	
CCc1ccccc1NC(=O)C1(C)Cc2ccccc2C(=O)O1 (stereo not drawn)	inactive: -17.6%	
CCN(Cc1ccccc1)S(=O)(=O)c1cc(C(=O)Nc2cc(Cl)cc(Cl)c2)ccc1F	inactive: -45.4%	
COc1ccc(-c2[nH]c(-c3cccc(OC)c3)nc2SCC(=O)NC2CCCC2)cc1	inactive: -20.6%	
CC(C)(C)C1CCc2c(sc(NC(=O)c3ccc(Cl)cc3)c2C(=O)NCc2ccco2)C1 (stereo not drawn)	inactive: -7.41%	
COc1ccccc1N1CCN(c2ncnc3c2cnn3-c2cccc(Cl)c2)CC1	inactive: 8.47%	
COc1ccc(-c2cn3nc(N4CCCC(C(=O)Nc5cc(C)cc(C)c5)C4)sc3n2)cc1 (stereo not drawn)	inactive: 11%	
Cc1ccc(Cn2c(CN3CCC(C(=O)NCCc4ccccc4)CC3)cc3ccccc32)cc1	inactive: -14.9%	
N#Cc1ccc(C(=O)Nc2ccc3c(c2)N(C2CCCC2)C(=O)c2ccccc2S3)cc1	inactive: -27.5%	

SMILES	activity change, positive = activation	Potency
CC(C)Sc1ncc(Cl)c(C(=O)N(Cc2ccc(N(C)C)cc2)C2CCS(=O)(=O)C2)n1 (stereo not drawn)	inactive: 0%	
CCc1nn(CC(=O)Nc2ccc(N(CC)CC)cc2C)c(=O)c2cc3sccc3n12	inactive: -6.22%	
O=C(NCCc1nc2ccccc2n1Cc1ccc(Cl)cc1Cl)c1ccco1	inactive: -41.1%	
CCn1ccc2c(OCC(=O)NCc3ccc(F)cc3)cccc2c1=O	inactive: -11.2%	
CC(C)Cn1c(=O)c2ccccc2n2c(CCC(=O)NC(C)c3ccccc3)nnc12 (stereo not drawn)	inactive: -10%	
CCOc1ccc(C2C(C(=O)Nc3ccccc3)=C(C)Nc3nc(SCc4cc(C)ccc4C)nn32)cc1 (stereo not drawn)	inactive: 0%	
Cc1cc(C)c2nc(N(Cc3cccnc3)C(=O)c3cccs3)sc2c1	inactive: -14.4%	
Oc1cc(-c2nc(-c3ccccc3)[nH]c2-c2ccncc2)ccc1Cl	inactive: -24.7%	
CN(C)c1ccc(/C=C(\C#N)c2nc(-c3ccc(Cl)c(Cl)c3)cs2)cc1	inactive: -5.06%	
COc1cc(NC(=O)COCc2cc(-c3ccc4c(c3)OCO4)on2)cc(OC)c1	inactive: -7.12%	
COC(=O)c1cc(S(N)(=O)=O)ccc1OC	inactive: 0.103%	
Cc1ccc(-n2c(=O)c3c(cnn3C)n(Cc3ccccc3F)c2=O)cc1	inactive: -31.4%	
Cn1c2ccccc2c2cnn(CC(=O)Nc3ccccc3C(F)(F)F)c(=O)c21	inactive: -11.2%	
CCn1cc(S(=O)(=O)c2ccccc2)c(=O)c2cc(F)c(N3CCN(c4ccccc4)CC3)cc21	inactive: -15.8%	
CCN(CC)C(=O)c1sc2c(c1C)c(=O)n(-c1ccc(OC)cc1OC)c(=O)n2CC(=O)c1ccc(Cl)cc1	inactive: -10.6%	
CCOc1ccc(N(C(C)C(=O)Nc2cc(Cl)ccc2OC)S(C)(=O)=O)cc1 (stereo not drawn)	inactive: -36.6%	
COc1cc(NC(=O)c2oc3c(c2C)-c2nn(Cc4cccc(Cl)c4)cc2CC3)cc(OC)c1	inactive: 14.1%	
O=C(Nc1ccc(OC(F)(F)F)cc1)C1CCN(S(=O)(=O)c2cccs2)CC1	inactive: -56.7%	
CCN(CC)CCNC(=O)Nc1ccc2c(c1)N(Cc1ccccc1)C(=O)c1ccccc1S2	inactive: -19.9%	
NC(=O)c1ccc2nc(-c3ccc(Oc4ccc(Cl)cc4)cc3)[nH]c2c1	inactive: 18.8%	
COc1ccc(N2CC(NC(=O)c3ccc(S(=O)(=O)N4CCOCC4)cc3)CC2=O)cc1OC (stereo not drawn)	inactive: -14%	
CCc1ccc(S(=O)(=O)N(C(=O)Oc2ccccc2)c2ccc3oc(C)c(C(=O)OC)c3c2)cc1	inactive: -90.7%	
CCCCNC(=O)C1CCC(CNS(=O)(=O)c2ccc(Cl)cc2)CC1 (stereo not drawn)	inactive: -17.4%	
CCCCOc1cccc(C(=O)N(Cc2cccs2)c2ccc(OC)cc2)c1	inactive: -36.2%	

SMILES	activity change, positive = activation	Potency
CC(=O)NCCn1c(SCC(=O)Nc2ccc(C)cc2)nc2ccccc2c1=O	inactive: 5.66%	
CC(C)(C)c1ccc(-c2nc(SCC(=O)Nc3ccc(Cl)cc3)[nH]c(=O)c2C#N)cc1	inactive: -10.2%	
Cc1c(-c2ccc(Cl)cc2)c(=O)oc2ccc(OC(=O)N3CCOCC3)cc12	inactive: -19.5%	
COc1cccc(-n2c(-c3cccc(F)c3)nc3c(cnn3-c3ccc(C)cc3)c2=O)c1	inactive: -32.6%	
CCc1cnc2c(c1SCC(=O)c1ccc(OC)cc1)c(=O)n(C)c(=O)n2C	inactive: -31.9%	
COc1ccccc1CNC(=O)CC(c1ccc(OC)c(OC)c1)N1Cc2ccccc2C1=O (stereo not drawn)	inactive: -23.7%	
CCCCN(CCCC)C(=O)C1CCN(S(=O)(=O)c2cccc3nsnc23)CC1	inactive: -34%	
Cc1ccc(Cl)cc1-n1ncc2c(N3CCCCCC3)ncnc21	inactive: -37.9%	
CCN(Cc1ccccc1)c1ncnc2c1nnn2C	inactive: 5.38%	
COc1ccc(OC)c(/C=C/C(=O)Nc2ccc(C(=O)OCCC(C)C)cc2)c1	inactive: -12.9%	
O=S(=O)(NCc1ccc(Cl)cc1)c1ccc(-c2cnc(C3CC3)o2)cc1	inactive: -0.332%	
Cc1ccccc1CN1C(=O)c2ccccc2Sc2ccc(C(=O)NC3CCCC3)cc21	inactive: -20.4%	
CCCN(C(=O)CCc1nc(-c2ccc(OC)cc2)no1)c1ccccc1F	inactive: -22.1%	
CSc1ncc(C(=O)N2CCN(c3cc(Cl)ccc3C)CC2)c(C)n1	inactive: -32.2%	
COc1cccc2cc(-c3nnc(Nc4c(F)cccc4F)s3)c(=O)oc12		active: 1000 nM
Cc1oc(-c2ccccc2F)nc1CS(=O)(=O)CC(=O)NCCc1ccc(Cl)cc1	inactive: -23.4%	
COc1cc(-c2nc(Cn3nnc(C(=O)Nc4ccc(C)cc4C)c3C)c(C)o2)cc(OC)c1OC	inactive: -2.05%	
COc1ccc(N2CCN(c3oc(-c4ccc(COc5cccc(C)c5)o4)nc3C#N)CC2)cc1	inactive: -19.9%	
COc1ccc(CC(=O)NCCc2csc3nc(-c4ccccc4F)nn23)cc1	inactive: -18%	
Cc1ccc(NC(=O)CN(C)S(=O)(=O)c2ccc3[nH]c4c(c3c2)CCCC4)c(Cl)c1	inactive: -16%	
COc1ccc(NC(=O)Cn2ncc3c2-c2ccccc2OC3)cc1Cl	inactive: -30.7%	
Cc1cccc(NC(=O)c2sc3nc(N4CCOCC4)c4c(c3c2N)CC(C)(C)OC4)c1	inactive: 21.7%	
COc1ccccc1C(=O)Nc1ccc(OCc2cc(=O)n3ccsc3n2)cc1	inactive: -0.294%	
O=C(CSc1nc2c([nH]c3ccccc32)c(=O)n1-c1ccccc1)Nc1ccc2c(c1)OCCO2	inactive: -22.5%	

SMILES	activity change, positive = activation	Potency
Cc1ccc(C)c2sc(N3CCN(C(=O)C(C)(C)C)CC3)nc12	inactive: -29.7%	
CC(=O)N1c2ccc(S(=O)(=O)NCCC(=O)Nc3ccc(Br)c(C)c3)cc2CC1C (stereo not drawn)	inactive: -67.3%	
CC1=C(C(=O)Nc2ccc(C)cc2Cl)C2(CCCCCC2)OC1=O	inactive: -14.4%	
CCN(CC)c1sc(S(=O)(=O)c2ccccc2)nc1S(=O)(=O)c1ccc(C)cc1	inactive: -27.6%	
CCC(=O)c1cc2c(cc1NC(=O)c1ccccc1F)OCCO2	inactive: -11.4%	
CCOc1ccc(CCNC(=O)c2ccc(-n3c(C)cc4c3CCC(C)C4)cc2)cc1OCC (stereo not drawn)	inactive: 2.14%	
CCOc1ccc(NC(=O)c2oc3ccccc3c2NC(=O)c2cc(C)cc(C)c2)cc1	inactive: 4.8%	
COc1ccc(CCNC(=O)Cn2ncc3c(=O)oc4ccccc4c32)c(OC)c1	inactive: -1.41%	
COc1ccc(CC(=O)NCc2ccc3c(c2)CCN3C(=O)c2ccc(Cl)cc2)cc1	inactive: -1.3%	
CCOc1ccc(CCNC(=O)CCSCc2ccc(Cl)cc2)cc1OCC	inactive: -18.6%	
Cc1cccc(Cc2c(C)nc3nc(SCC(=O)NCc4ccccc4)nn3c2C)c1	inactive: -32%	
CC(C)Oc1ccc(CNC(=O)c2cccc(NC(=O)N3CCSc4ncccc43)c2)cc1	inactive: -30.2%	
CCC(=O)N1CCc2cc(Br)cc(S(=O)(=O)N3CCCC(C(=O)Nc4cccc(F)c4)C3)c21 (stereo not drawn)	inactive: -33.4%	
CCOC(=O)CSc1nc2sc3c(c2c(=O)n1-c1ccccc1)CCC(C(C)(C)C)C3 (stereo not drawn)	inactive: -14.3%	
O=C(Nc1cccc(Br)c1)N1CCC(CN2CCCCCC2)CC1	inactive: -1.32%	
COc1cccc(CNC(=O)CN(c2ccc(C(C)C)cc2)S(=O)(=O)c2c(C)noc2C)c1	inactive: -37.4%	
CCOC(=O)c1sc(NC(=O)c2cc3nc(-c4ccccc4)cc(C(F)(F)F)n3n2)c(C(=O)OCC)c1C	inactive: -11.7%	
Cc1cc(C)cc(Oc2c(C(F)(F)F)oc3cc(OCC(=O)NC4CCCCC4)ccc3c2=O)c1	inactive: 1.85%	
CCOC(=O)c1cc(-c2ccccc2)n(-c2cccc(C(=O)Nc3cc(OC)cc(OC)c3)c2)c1C	inactive: -23%	
O=C(NCc1ccc(F)cc1)c1cc(-c2ccc(Cl)cc2)n[nH]1	inactive: -9.24%	
CCC(C)NC(=O)CCSc1nc(-c2ccc(OC)cc2)cc(C(F)(F)F)n1 (stereo not drawn)	inactive: -27.8%	
